Test results: PubChem BioAssay (Tox21)
“And” between values parts separate entries of the source, which are not always exact repeats. Equal values may be shown once. This list was built around the results that the source calls inconclusive (neither active nor inactive); the mix of calls is not that of the screen. For some assays here: A potency beside an inconclusive call is a rough fit, not a confirmed value. The source made the active and inactive calls. Unless noted, calls follow the shape of the dose curve; as a rule, active = well fitted curve in the direction sought with a large enough effect in the repeat runs; inconclusive = weak or mixed curves; inactive = no such curve, though single readings can be large; an effect the other way counts as inactive or inconclusive.

Experiments:
[1] = qHTS assay to identify small molecule antagonists of the estrogen receptor beta (ER-beta) signaling pathway - cell viability counter screen (AID 1259382); also: potency is read from the fitted curve at half-maximal effect; nearly all actives have a fitted effect of over 55% in size
Summary of the method: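 Readout: luminescence, CellTiter-Glo, same wells as bla assay. System: ER-beta-UAS-bla GripTite HEK293T, 2% charcoal-stripped FBS. Exposure: compounds plus 1nM 17-beta-estradiol, 16 hr, 37C.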

[2] = target: Thyrotropin receptor (Homo sapiens) (UniProt P16473); experiment: qHTS assay to identify small molecule antagonists of the thyroid stimulating hormone receptor (TSHR) signaling pathway (AID 1259385; calls by dose curve; also: nearly all actives have a fitted effect of over 20% in size; also: potency is read from the fitted curve at half-maximal effect; as to activity change, negative = inhibition: % is scaled to controls: 0 for no effect and ±100 for the full control effect); details: TSHR-HEK293 cAMP HTRF, TSH-stimulated antagonist mode; activity change, negative = inhibition: at 92.4 µM (top of the series) unless noted
Summary of the method: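 Antagonist mode: compound-treated TSHR-expressing HEK293 cells were stimulated with 1.5 ng/mL TSH (final) in presence of Ro20-1724 for 30 min at RT. HTRF cAMP detection after 1 h; each compound tested at 15 concentrations, triplicate.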

[3] = qHTS assay to identify small molecule agonists of the estrogen receptor alpha (ER-alpha) signaling pathway in the presence of an antagonist - cell viability counter screen (AID 1259386);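 also: potency is read from the fitted curve at half-maximal effect; cells exposed to compounds for 22 h at 37 °C before the viability read; nearly all actives have a fitted effect of over 30% in size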
Summary of the method: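 The test measures whether compounds kill ER-alpha reporter cells (VM7Luc4E2) under antagonist co-treatment (ICI-182,780, 10.0nM). Fluorescence from CellTiter-Fluor is read after a 22hr exposure.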

[4] = target: Progesterone receptor (Homo sapiens) (UniProt P06401); experiment: qHTS assay to identify small molecule agonists of the progesterone receptor (PR) signaling pathway (AID 1346784; calls by dose curve; also: nearly all actives have a fitted effect of over 30% in size; also: potency is read from the fitted curve at half-maximal effect; as to activation: % is scaled to controls: 0 for no effect and ±100 for the full control effect); details: PR-UAS-bla HEK293T, beta-lactamase FRET ratio, 16 h; activation: at 92.4 µM (top of the series) unless noted
Summary of the method: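 HEK 293T PR-UAS-bla reporter cells, 2% charcoal-stripped FBS; 6 hr settle at 37C/5% CO2, compound (DMSO) 16 hr, LiveBLAzer B/G FRET substrate 2 hr RT, fluorescence intensity read.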

[5] = qHTS assay to identify small molecule agonists of the TGF-beta/Smad signaling pathway - cell viability counter screen (AID 1346829); also: nearly all actives have a fitted effect of over 45% in size; also: potency is read from the fitted curve at half-maximal effect
Summary of the method: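 CellTiter-Glo luminescence readout; SBE-bla HEK 293T cells, overnight plating, compound 5 hr at 37 C/5% CO2, then bla substrate 2 hr RT, then CellTiter-Glo 30 min RT.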

[6] = qHTS assay to identify small molecule agonists of the TGF-beta/Smad signaling pathway (AID 1346859; active = well fitted activation curve with a large enough effect in the signal ratio in the repeat runs, not every such curve was filed as active; inconclusive = weak or mixed curves; the % refers to the signal ratio; also: potency is read from the fitted curve at half-maximal effect); details: SBE-bla HEK293T, TGF-beta/Smad beta-lactamase reporter, 5 h; activation: at 76.8 µM (top of the series)
Summary of the method: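 Read-out: fluorescence at 460 and 530 nm (405 nm excitation) after a 2 hr room-temperature incubation with beta-lactamase FRET substrate. SBE-bla HEK 293T cells had been treated with test compounds for 5 hr at 37 C.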

[7] = target: Thyrotropin-releasing hormone receptor (Homo sapiens) (UniProt P34981); experiment: qHTS assay to identify small molecule antagonists of the thyrotropin-releasing hormone receptor (TRHR) signaling pathway (AID 1346877; active = well fitted inhibition curve with a large enough effect in the repeat runs, not every such curve was filed as active; inconclusive = weak or mixed curves; also: potency is read from the fitted curve at half-maximal effect)
Summary of the method: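 Overnight-plated (18 h, 37 °C) HEK293 cells expressing TRHR were dye-loaded 2 h, treated with compound, then stimulated with TRH at 1 nM final. Fluorescence intensity was captured every second for 3 min.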

[8] = qHTS assay to identify small molecule antagonists of the TGF-beta/Smad signaling pathway (AID 1346924; active = well fitted inhibition curve with a large enough effect in the signal ratio in the repeat runs, not every such curve was filed as active; inconclusive = weak or mixed curves; the % refers to the signal ratio; also: potency is read from the fitted curve at half-maximal effect); details: SBE-bla HEK293T, TGF-beta/Smad reporter, beta-lactamase ratio; activity, negative = inhibition: at 76.8 µM (top of the series) unless noted
Summary of the method: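 Read-out was FRET-substrate fluorescence (405 nm excitation; 460 and 530 nm emission) after 2 h at room temperature. Before that, cells carrying a Smad-binding-element beta-lactamase reporter in HEK 293T had been stimulated 5 h at 37 C with TGF-beta1 (0.25 ng/mL addition solution) in the presence of test compound.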

[9] = Caspase-3/7 induction in HepG2 cells by small molecules, qHTS assay (AID 1346978); also: potency is read from the fitted curve at half-maximal effect; nearly all actives have a fitted effect of over 15% in size
Summary of the method: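 Caspase-3/7 induction was measured by Caspase-Glo 3/7 luminescence (30 min, room temperature) after a 17 hr compound exposure of wild-type HepG2 cells seeded at 2,000 per well and pre-incubated 5 hr.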

[10] = target: Progesterone receptor (Homo sapiens) (UniProt P06401); experiment: qHTS assay to identify small molecule antagonists of the progesterone receptor (PR) signaling pathway (AID 1346795; active = well fitted inhibition curve with a large enough effect in the signal ratio in the repeat runs, not every such curve was filed as active; inconclusive = weak or mixed curves; the % refers to the signal ratio; also: potency is read from the fitted curve at half-maximal effect; as to activity change, negative = inhibition: % is scaled to controls: 0 for no effect and ±100 for the full control effect); details: PR-UAS-bla HEK293T, beta-lactamase FRET ratio, 16 h; activity change, negative = inhibition: at 92.4 µM (top of the series) unless noted
Summary of the method: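 Beta-lactamase reporter, HEK293T PR-UAS-bla line; 2% charcoal-stripped FBS; 6 hr pre-incubation, 37C/5% CO2. Compound + R5020 1 nM final, 16 hr. LiveBLAzer B/G FRET substrate, 2 hr RT; fluorescence intensity read.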

[11] = qHTS assay to identify small molecule antagonists of the progesterone receptor (PR) signaling pathway - cell viability counter screen (AID 1346798); also: potency is read from the fitted curve at half-maximal effect; nearly all actives have a fitted effect of over 50% in size
Summary of the method: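 Luminescence readout (CellTiter-Glo, 30 min, RT) of viability in PR-UAS-bla HEK293T cells exposed to compound and R5020 agonist for 16 hr at 37C, 5% CO2; run in the same wells as the beta-lactamase reporter read.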

[12] = qHTS assay to identify small molecule agonists of the progesterone receptor (PR) signaling pathway - cell viability counter screen (AID 1346799; calls by dose curve; also: potency is read from the fitted curve at half-maximal effect; nearly all actives have a fitted effect of over 45% in size)
Summary of the method: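 HEK293T PR-UAS-bla, 3,000 cells/well, 2% charcoal-stripped FBS; 6 h settle, compound 16 h at 37C/5% CO2; LiveBLAzer 2 h RT, then CellTiter-Glo 30 min RT, luminescence read.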

[13] = qHTS assay to identify small molecule antagonists of the TGF-beta/Smad signaling pathway - cell viability counter screen (AID 1346824); also: potency is read from the fitted curve at half-maximal effect; nearly all actives have a fitted effect of over 50% in size
Summary of the method: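 Cytotoxicity counter-screen run in the same wells as the beta-lactamase Smad reporter read: CellTiter-Glo luminescence after 30 min at room temperature. HEK 293T SBE-bla cells had 5 hr compound exposure at 37 C with TGF-beta1 (0.25 ng/mL stock).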

[14] = qHTS assay to identify small molecule agonists or antagonists of the thyroid stimulating hormone receptor (TSHR) signaling pathway - wild type cell line counter screen (AID 1259384; calls by dose curve; also: % is scaled to controls: 0 for no effect and ±100 for the full control effect); details: HEK293 wild type, cAMP HTRF counter-screen; cAMP activity change: at 92.4 µM (top of the series), stronger effect = higher value unless noted
Summary of the method: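 Counter screen in untransfected Hek293: compounds (15-point titration, triplicate) plus phosphodiesterase inhibitor Ro20-1724 added after 18 h plating; 30 min RT. Intracellular cAMP via competitive d2/cryptate immunoassay, 1 h incubation.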

[15] = Human pregnane X receptor (PXR) small molecule agonists, qHTS cell viability counter screen (AID 1346977); also: potency is read from the fitted curve at half-maximal effect; nearly all actives have a fitted effect of over 50% in size
Summary of the method: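 Fluorescence read-out (CellTiter-Fluor) of viability in PXR-Luc HepG2 cells, multiplexed with the luciferase agonist read. Compounds in DMSO added after 5hr plating; 24hr total exposure at 37C, 5% CO2.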

[16] = Caspase-3/7 induction in CHO-K1 cells by small molecules, qHTS assay (AID 1346980); also: potency is read from the fitted curve at half-maximal effect; nearly all actives have a fitted effect of over 15% in size
Summary of the method: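 Luminescent Caspase-Glo 3/7 read (30min, room temperature) quantified apoptosis induction. Cells were wild-type CHO-K1, treated with compound for 17hr at 37 C and 5% CO2.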

[17] = qHTS assay to identify small molecule agonists of the estrogen receptor beta (ER-beta) signaling pathway - cell viability counter screen (AID 1259380); also: % is scaled to controls: 0 for no effect and ±100 for the full control effect; nearly all actives have a fitted effect of over 30% in size
Summary of the method: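 Measured: luminescence from CellTiter-Glo after 30 min at room temperature, added to wells already read for the LiveBLAzer FRET reporter (2 hr substrate); ER-beta-UAS-bla HEK293T cells had 16 hr compound treatment at 37C, 5% CO2.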

[18] = Caspase-3/7 induction in CHO-K1 cells by small molecules, qHTS cell viability counter screen (AID 1346979); also: potency is read from the fitted curve at half-maximal effect; nearly all actives have a fitted effect of over 35% in size
Summary of the method: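 CHO-K1 wt, 1,500 cells/well; 5hr pre-incubation 37C/5% CO2; compound pin transfer (DMSO); 16hr exposure; CellTiter-Fluor added, 1hr, fluorescence read.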
Tags tell the direction and shape of the fitted curve or compound fluorescence and quenching.

UniProt P06401, sequence (P06401 whole entry, looked up): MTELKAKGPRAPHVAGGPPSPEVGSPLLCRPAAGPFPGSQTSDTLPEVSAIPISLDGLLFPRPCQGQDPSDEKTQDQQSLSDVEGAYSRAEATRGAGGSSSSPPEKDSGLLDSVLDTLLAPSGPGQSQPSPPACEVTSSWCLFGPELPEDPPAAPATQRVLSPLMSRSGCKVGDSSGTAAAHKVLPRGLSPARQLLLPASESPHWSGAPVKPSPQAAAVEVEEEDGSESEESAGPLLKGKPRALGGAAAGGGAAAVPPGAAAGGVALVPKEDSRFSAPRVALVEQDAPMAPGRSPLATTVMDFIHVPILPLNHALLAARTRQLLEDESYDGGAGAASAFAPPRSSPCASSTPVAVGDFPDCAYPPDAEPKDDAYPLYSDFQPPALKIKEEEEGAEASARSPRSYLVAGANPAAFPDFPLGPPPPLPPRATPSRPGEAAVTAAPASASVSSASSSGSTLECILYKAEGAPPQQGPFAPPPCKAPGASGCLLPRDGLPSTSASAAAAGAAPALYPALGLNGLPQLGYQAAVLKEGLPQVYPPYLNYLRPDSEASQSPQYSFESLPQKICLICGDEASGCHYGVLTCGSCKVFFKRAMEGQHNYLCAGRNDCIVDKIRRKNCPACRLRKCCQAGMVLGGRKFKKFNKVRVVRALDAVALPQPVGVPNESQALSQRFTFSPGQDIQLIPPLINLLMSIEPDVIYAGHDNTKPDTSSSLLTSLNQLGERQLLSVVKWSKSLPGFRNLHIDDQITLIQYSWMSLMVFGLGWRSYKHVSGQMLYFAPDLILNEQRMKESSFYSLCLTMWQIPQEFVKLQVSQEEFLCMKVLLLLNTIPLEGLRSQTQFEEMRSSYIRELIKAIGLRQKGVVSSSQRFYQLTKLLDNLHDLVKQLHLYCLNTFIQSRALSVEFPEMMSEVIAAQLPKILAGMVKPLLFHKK
UniProt P16473, sequence (P16473 whole entry, looked up): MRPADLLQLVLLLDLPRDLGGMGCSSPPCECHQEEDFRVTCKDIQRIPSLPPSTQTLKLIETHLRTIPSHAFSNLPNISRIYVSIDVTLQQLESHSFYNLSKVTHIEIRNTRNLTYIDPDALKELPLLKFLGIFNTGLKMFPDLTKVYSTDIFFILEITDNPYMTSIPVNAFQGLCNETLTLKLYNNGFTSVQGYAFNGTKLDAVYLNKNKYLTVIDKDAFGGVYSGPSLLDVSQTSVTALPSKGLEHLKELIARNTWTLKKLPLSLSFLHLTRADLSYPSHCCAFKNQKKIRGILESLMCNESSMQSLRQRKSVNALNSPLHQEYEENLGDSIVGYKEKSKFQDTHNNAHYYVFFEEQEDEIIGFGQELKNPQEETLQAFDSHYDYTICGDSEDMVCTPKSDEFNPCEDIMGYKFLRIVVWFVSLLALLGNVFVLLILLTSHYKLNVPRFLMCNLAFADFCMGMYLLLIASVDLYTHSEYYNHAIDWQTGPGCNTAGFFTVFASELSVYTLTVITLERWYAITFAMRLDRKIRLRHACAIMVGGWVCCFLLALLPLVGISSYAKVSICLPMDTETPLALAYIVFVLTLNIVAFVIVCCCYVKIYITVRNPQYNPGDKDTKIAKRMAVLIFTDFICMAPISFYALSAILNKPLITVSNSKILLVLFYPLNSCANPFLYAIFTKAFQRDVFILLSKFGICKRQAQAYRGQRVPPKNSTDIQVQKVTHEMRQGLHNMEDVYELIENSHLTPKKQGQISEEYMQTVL
UniProt P34981, sequence (P34981 whole entry, looked up): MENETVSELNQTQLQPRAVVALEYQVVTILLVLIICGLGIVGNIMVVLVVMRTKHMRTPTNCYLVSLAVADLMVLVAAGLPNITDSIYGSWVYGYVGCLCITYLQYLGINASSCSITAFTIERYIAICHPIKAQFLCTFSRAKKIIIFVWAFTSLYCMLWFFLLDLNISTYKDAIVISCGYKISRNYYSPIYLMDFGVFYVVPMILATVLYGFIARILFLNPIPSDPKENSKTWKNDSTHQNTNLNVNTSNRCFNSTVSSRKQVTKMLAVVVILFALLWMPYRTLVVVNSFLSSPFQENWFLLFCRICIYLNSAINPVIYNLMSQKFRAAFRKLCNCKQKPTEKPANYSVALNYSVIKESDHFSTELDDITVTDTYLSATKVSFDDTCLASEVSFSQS

With N#CSCSC#N the Potency [1] was active: 55.7 µM and active: 48.1 µM, the Potency [2] was active: 55.7 µM and inconclusive: 67.9 µM and the Potency [3] was inconclusive: 70.1 µM [cytotoxic, single point] and inconclusive: 67.9 µM [cytotoxic, single point]. For the same compound, the activation [4] was inconclusive: -13.1% and inconclusive: -15.2%, the Potency [5] was inconclusive: 27.3 µM [cytotoxic, partial curve] and the Potency [6] was inconclusive: 63.1 µM [rising, single point]. The Potency [7] was inconclusive: 38.8 µM [inhibitor, single point], the activity, negative = inhibition [8] was inconclusive: -15.8% and the Potency [9] was inconclusive: 27.9 µM [activator, single point] and inconclusive: 24.1 µM [activator, partial curve].

With CCc1nn(C)c(C(=O)NCc2ccc(C(C)(C)C)cc2)c1Cl the Potency [1] was inconclusive: 61.1 µM [cytotoxic, partial curve], the Potency [2] was active: 61.1 µM and the Potency [3] was inconclusive: 24.3 µM [cytotoxic, partial curve, poor fit]. The Potency [4] was inconclusive: 77 µM [cytotoxic, single point], the Potency [10] was inconclusive: 54.5 µM [rising, partial curve, poor fit] and the Potency [11] was inconclusive: 68.6 µM [cytotoxic, single point]. The Potency [12] was active: 54.5 µM, the Potency [13] was active: 0.389 µM and the Potency [5] was inconclusive: 34.7 µM [cytotoxic, partial curve, poor fit].

With CC(C)CC(C)Nc1ccc(Nc2ccccc2)cc1 (stereo not given) the Potency [1] was inconclusive: 67.4 µM [cytotoxic, single point], the cAMP activity change [14] was inconclusive: -0.796% and the Potency [3] was active: 60.1 µM. For the same compound, the Potency [4] was inconclusive: 30.1 µM [cytotoxic, full curve], the Potency [10] was active: 47.7 µM and the Potency [11] was inconclusive: 42.5 µM [rising, partial curve, poor fit]. For the same compound, the Potency [12] was inconclusive: 33.8 µM [cytotoxic, partial curve, poor fit], the Potency [13] was inconclusive: 48.2 µM [cytotoxic, partial curve, poor fit] and the Potency [5] was inconclusive: 38.3 µM [cytotoxic, partial curve, poor fit].

In the case of C=CCC1=C(C)[C@@H](OC(=O)[C@@H]2[C@@H](C=C(C)C)C2(C)C)CC1=O, the Potency [1] is reported as inconclusive: 61.1 µM [cytotoxic, partial curve], the Potency [2] is reported as inconclusive: 68.6 µM and the Potency [3] is reported as active: 48.6 µM. The Potency [4] was inconclusive: 54.5 µM [cytotoxic, partial curve], the Potency [10] was active: 27.3 µM and the Potency [11] was inconclusive: 68.6 µM [cytotoxic, single point]. The Potency [12] was inconclusive: 68.6 µM [cytotoxic, single point], the Potency [13] was active: 49 µM and the Potency [5] was inconclusive: 27.5 µM [cytotoxic, partial curve, poor fit]. For the same compound, the Potency [6] was inconclusive: 61.6 µM [rising, single point], the Potency [8] was inconclusive: 61.6 µM [rising, partial curve, poor fit] and the Potency [15] was active: 61.1 µM. The Potency [16] was inconclusive: 77 µM [activator, single point].

For [O]=[Cr](=[O])([OH])[O][Cr](=[O])(=[O])[OH], the Potency [1] was inconclusive: 15.5 µM [cytotoxic, full curve] and inconclusive: 34.3 µM [cytotoxic, partial curve], the activity change, negative = inhibition [2] was inconclusive: 7.74% and the Potency [3] was inconclusive: 30.9 µM [cytotoxic, partial curve] and inconclusive: 432 nM [cytotoxic, full curve, poor fit]. The activation [4] was inconclusive: 9.63% and inconclusive: 28.3%, the Potency [10] was inconclusive: 68.5 µM [falling, single point] and the activity change, negative = inhibition [10] was inconclusive: -53.8%. For the same compound, the Potency [11] was inconclusive: 13.8 µM [cytotoxic, full curve, poor fit], the Potency [12] was inconclusive: 19.5 µM [cytotoxic, partial curve] and the Potency [13] was active: 27.8 µM and active: 24.5 µM. For the same compound, the Potency [5] was active: 24.8 µM and active: 24.5 µM, the Potency [6] was inconclusive: 38.8 µM [rising, partial curve] and the Potency [8] was inconclusive: 24.8 µM [rising, partial curve, poor fit].

For CN1CCC(O)(c2ccc(F)cc2)C(C(=O)c2ccc(F)cc2)C1 (stereo not given), the Potency [17] was “inactive”, the Potency [5] was “inactive” and the Potency [15] was inconclusive: 29.8 µM [cytotoxic, single point].

With O=C(Nc1ccccc1-c1ccc(Cl)cc1)c1cccnc1Cl the Potency [1] was inconclusive: 25.8 µM [cytotoxic, full curve], the Potency [14] was “inactive” and the Potency [2] was inconclusive: 61.1 µM. For the same compound, the Potency [10] was inconclusive: 19.6 µM, the Potency [11] was inconclusive: 64.8 µM [rising, partial curve] and the Potency [12] was inconclusive: 16.3 µM [cytotoxic, partial curve, poor fit]. The Potency [13] was inconclusive: 36.8 µM [cytotoxic, partial curve], the Potency [5] was inconclusive: 51.9 µM [cytotoxic, partial curve, poor fit] and the activity, negative = inhibition [8] was inconclusive: -34.4%. For the same compound, the Potency [18] was inconclusive: 73.7 µM [cytotoxic].
